# In all, about 44,000 compounds went through this assay and fewer than 10 were called active. This list was built around the results that the source calls inconclusive (neither active nor inactive); the mix of calls is not that of the screen. The call rests on the fitted dose curve; in most records, active means well fitted activation curve with a large enough effect; inconclusive means small, poorly fitted or top-dose-only effect, or another doubt; inactive means no such curve, though single readings can be large or run the other way. No potency is given beside an inconclusive call; the fits are too rough.
# Target: Beta-2 adrenergic receptor (Homo sapiens) (UniProt P07550)
# Sequence of UniProt P07550 (P07550 whole entry, looked up): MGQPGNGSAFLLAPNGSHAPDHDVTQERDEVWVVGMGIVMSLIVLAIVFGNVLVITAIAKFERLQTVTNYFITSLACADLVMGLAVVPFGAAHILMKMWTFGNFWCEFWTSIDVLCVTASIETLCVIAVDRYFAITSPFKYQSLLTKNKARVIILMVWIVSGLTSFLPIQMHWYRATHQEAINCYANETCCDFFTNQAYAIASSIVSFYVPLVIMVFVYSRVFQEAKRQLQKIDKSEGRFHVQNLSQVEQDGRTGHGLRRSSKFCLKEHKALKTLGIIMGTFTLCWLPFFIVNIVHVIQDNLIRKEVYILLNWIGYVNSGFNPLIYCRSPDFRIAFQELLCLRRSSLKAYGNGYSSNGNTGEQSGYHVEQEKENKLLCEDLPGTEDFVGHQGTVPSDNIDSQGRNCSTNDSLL
# Assay: qHTS assay of beta-arrestin-biased ligands of beta2-adrenergic receptor: NCGC Sytravon Library Screen
# Details: HTLA Tango cells, beta-arrestin recruitment, luciferase luminescence, 18 h; series mostly up to 46.1 µM
# In short: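 Tango cells expressing recombinant beta2-AR and beta-arrestin were treated with compounds (up to 46 microM titration) in DMEM with 1% FBS for 18 hr at 37 degrees C. Beta-arrestin recruitment drove tTA-dependent luciferase, read by luminescence; curves were fitted and classed.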
# Potency means the concentration at half of the fitted maximal effect; tags describe the fitted curve by direction and shape.
row,SMILES,Potency
1,COc1ccc(CCN2C(=O)c3[nH]nc(-c4ccccc4O)c3C2c2ccc(OC)cc2)cc1 (configuration not stated),"inconclusive [activator, single point]"
2,Cc1ccc(-n2cc3c(c2-c2ccccc2Br)c(=O)n(C)c(=O)n3C)cc1N,"inconclusive [activator, partial curve, poor fit]"
3,CCC(NC(=O)Nc1cc(Cl)ccc1OC)c1c(-n2cccc2)sc2c1CCN(C)C2 (configuration not stated),inactive
4,Cc1coc2cc3oc(=O)c(CC(=O)N4CCCCC4)c(C)c3cc12,inactive
5,CN(C)CCCNc1oc(/C=C/c2ccc(F)cc2)nc1C#N,"inconclusive [activator, single point]"
6,COc1ccc(-n2c(SCC(=O)Nc3cccc(C)c3C)nc3c([nH]c4ccccc43)c2=O)cc1,"inconclusive [activator, partial curve]"
7,COCCCN1C(=O)c2[nH]nc(-c3ccccc3O)c2C1c1ccc(OCc2ccccc2)cc1 (configuration not stated),"inconclusive [activator, single point]"
8,COc1ccc(CCNC(=O)c2oc(=O)c3ccccc3c2-c2ccccc2)cc1OC,"inconclusive [activator, single point]"
9,COc1ccc(OC)c(NC(=O)CSC2=Nc3ccccc3C3=NC(CC(=O)NCc4ccc(F)cc4)C(=O)N23)c1 (configuration not stated),"inconclusive [activator, partial curve, poor fit]"
10,COc1ccc(NC(=O)CCS(=O)(=O)c2nc(-c3cccs3)cc(C(F)(F)F)n2)cc1,"inconclusive [activator, single point]"
11,COc1cc(-c2nc(SCC(=O)Nc3ccc(C)cc3)c(-c3ccc(F)cc3)[nH]2)cc(OC)c1OC,"inconclusive [activator, partial curve, poor fit]"
12,COc1ccc(NC(=O)CCS(=O)(=O)c2nc(-c3ccc4c(c3)OCO4)cc(C(F)(F)F)n2)cc1,"inconclusive [activator, partial curve, poor fit]"
13,COCCCNC(=O)c1ccc(Cn2c(SCc3ccc(F)cc3)nc3cccnc32)cc1,"inconclusive [activator, single point]"
14,Cc1cc(C)c2nc(N(Cc3cccnc3)C(=O)Cc3ccccc3)sc2c1,"inconclusive [activator, partial curve, poor fit]"
15,COc1ccc(NC(=O)c2c(C)oc3ccc(O)c(CN4CCCCCC4)c23)cc1,"inconclusive [activator, partial curve, poor fit]"
16,Cc1ccc(NC(=O)c2nnn(Cc3cccc(C(F)(F)F)c3)c2N)c(C)c1,inactive
17,COc1ccc(-n2nc(C(=O)N3CCCCC3)c3c4ccccc4n(C)c3c2=O)cc1Cl,"inconclusive [activator, partial curve, poor fit]"
18,CCOc1cc(C(Nc2cc(C)ccn2)c2ccc3cccnc3c2O)ccc1OC (configuration not stated),"inconclusive [activator, single point]"
19,CCCCN1CC(c2nc3ccccc3n2CCCCOc2c(C)cccc2C)CC1=O (configuration not stated),inactive

row,SMILES,Potency
1,O=C(NCC(c1ccc2c(c1)OCO2)N1CCOCC1)c1ccccc1F (configuration not stated),"inconclusive [activator, partial curve, poor fit]"
2,CCCCOc1ccc(C2c3c(-c4ccccc4O)n[nH]c3C(=O)N2Cc2ccncc2)cc1OC (configuration not stated),"inconclusive [activator, single point]"
3,Fc1cccc(-c2nc(-c3ccncc3)no2)c1,inactive
4,Oc1cccc(C(Nc2ccccn2)c2ccc3cccnc3c2O)c1Cl (configuration not stated),"inconclusive [activator, single point]"
5,CCOCCCNC(=O)C(c1ccc(OC)cc1)N(Cc1cccs1)C(=O)c1ccc(NC(C)=O)cc1 (configuration not stated),inactive
6,CCn1c(CN2CCC(C)CC2)nc2cc(NC(=O)c3ccccc3[N+](=O)[O-])ccc21,"inconclusive [activator, partial curve, poor fit]"
7,CCc1ccc(S(=O)(=O)c2nnn3c2nc(NCCc2ccccc2)c2sccc23)cc1,"inconclusive [activator, partial curve]"
8,O=C(Nc1ccc(S(=O)(=O)Nc2ccccc2)cc1)N1CCCC1,"inconclusive [activator, single point]"
9,CCOc1ccc(-c2oc3ccccc3c(=O)c2O)cc1OCC,"inconclusive [activator, single point]"
10,O=C(CN1C=NS(=O)(=O)c2ccccc21)Nc1ccc(F)cc1,"inconclusive [activator, partial curve, poor fit]"
11,CCCCNC(=O)C(CC)Sc1nnc(-c2cccc(F)c2)c(-c2cccc(F)c2)n1 (configuration not stated),"inconclusive [activator, single point]"
12,Cc1c(C(=O)N2CCCC2)oc2c1-c1nn(CC(=O)NCc3cccc(Br)c3)cc1CC2,"inconclusive [activator, single point]"
13,COc1ccc(NC(=O)CSc2nc3c([nH]c4ccccc43)c(=O)n2-c2ccccc2)c(OC)c1,"inconclusive [activator, partial curve, poor fit]"
14,O=S(=O)(NCC(c1cccs1)S(=O)(=O)c1ccccc1)c1ccc(F)cc1 (configuration not stated),"inconclusive [activator, single point]"
15,Cc1cc2c(n1-c1ccc(C(=O)NCCc3ccc(Cl)cc3)cc1)CCC(C)C2 (configuration not stated),"inconclusive [activator, single point]"
16,COc1ccc(-n2c(SCC(=O)Nc3nnc(C)s3)nc3c([nH]c4ccccc43)c2=O)cc1,"inconclusive [activator, single point]"
17,Cc1ccccc1CN1C(=O)C(O)(CC(=O)c2ccccc2)c2cc(Cl)ccc21 (configuration not stated),"inconclusive [activator, partial curve, poor fit]"
18,COc1ccccc1CNC(=O)c1ccc2c(c1)N(Cc1cc(C)ccc1C)C(=O)c1ccccc1S2,"inconclusive [activator, single point]"

# — PubChem BioAssay AID1347077 (National Center for Advancing Translational Sciences (NCATS), 2019)
